Key:
[1] = system: MRSA strain USA300; test: microbe, parasite or virus in culture; settings: for Growth: DMSO control = 100; for effect on the growth of the bacteria: 1 μg/mL; for activity at 1 µg/mL / activity at 10 µg/mL: Staphylococcus aureus, read-out: Growth
[2] = system: MRSA strain USA300; test: microbe, parasite or virus in culture; settings: for Hemolysis / hemolysis at 1 µg/mL / hemolysis at 10 µg/mL: DMSO control = 100; for inhibition of rabbit blood hemolysis compared to diflunisal: 1 μg/mL; for hemolysis at 1 µg/mL / hemolysis at 10 µg/mL: Staphylococcus aureus, Erythrocyte, in Oryctolagus cuniculus

SMILES	Growth ([1]; 10 μg/mL compound) [%]	Hemolysis ([2]; 10 μg/mL compound) [%]	effect on the growth of the bacteria [1]	activity at 1 µg/mL [1] [%]	activity at 10 µg/mL [1] [%]	inhibition of rabbit blood hemolysis compared to diflunisal [2]	hemolysis at 1 µg/mL ([2]; 1 μg/mL compound) [%]	hemolysis at 10 µg/mL ([2]; 10 μg/mL compound) [%]	Growth ([1]; 1 μg/mL compound) [%]	Hemolysis ([2]; 1 μg/mL compound) [%]
O=C(COc1ccccc1F)c1ccc(O)cc1O [4a-5]	101.8	26.7 ± 1.5	–	–	–	–	–	–	–	–
CCCc1cc(C(=O)COc2cccc(C)c2)c(O)cc1O [4e-10]	–	–	without affecting the growth of the bacteria	98.9	88.4	greater inhibition of rabbit blood hemolysis	18.7 ± 0.7	11.5 ± 1.2	–	–
CCc1cc(C(=O)COc2ccc(F)c(F)c2)c(O)cc1O [4b-14]	–	–	–	107	79.2	–	53.6 ± 3.8	0	–	–
CCCc1cc(C(=O)COc2ccc(Br)cc2)c(O)cc1O [4e-7]	–	–	–	–	97.8	–	–	74.3 ± 13.7	–	–
Cc1cc(C(=O)COc2ccc(C(C)C)cc2)c(O)cc1O [4d-19]	–	–	without affecting the growth of the bacteria	99.5	5.2	greater inhibition of rabbit blood hemolysis	29 ± 0.5	1 ± 0.1	–	–
O=C(O)c1cc(-c2ccc(F)cc2F)ccc1O [Diflunisal, reference compound]	–	–	–	102	100	–	37 ± 1.1	2.3 ± 0.1	–	–
CCc1cc(C(=O)COc2ccccc2C(=O)O)c(O)cc1O [4b-23]	101.4	107.8 ± 3.3	–	–	–	–	–	–	–	–
O=C(COc1cc(F)cc(F)c1)c1ccc(O)cc1O [4a-15]	–	–	–	97.5	95.8	–	77 ± 2.4	7.8 ± 2.5	–	–
CCCc1cc(C(=O)COc2cc(F)c(F)c(F)c2)c(O)cc1O [4e-17]	–	–	without affecting the growth of the bacteria	105	77.5	greater inhibition of rabbit blood hemolysis	14.8 ± 0.4	-2.4 ± 0.3	–	–
CCCc1cc(C(=O)COc2ccc(C)cc2)c(O)cc1O [4e-11]	–	–	–	–	96.2	–	–	30.3 ± 4.2	–	–
CCc1cc(C(=O)COc2ccccc2)c(O)cc1O [4b-0]	100.6	2.1 ± 0.2	–	–	–	–	–	–	102.4	90.8 ± 6.6
CCCc1cc(C(=O)COc2ccc(C(C)C)cc2)c(O)cc1O [4e-19]	–	–	without affecting the growth of the bacteria	95.6	6	greater inhibition of rabbit blood hemolysis	22.9 ± 0.6	-2.1 ± 0.1	–	–
Cc1cc(C(=O)COc2cccc(Cl)c2)c(O)cc1O [4d-3]	–	–	–	102	103	–	204 ± 45.4	8.4 ± 1.4	–	–
O=C(COc1ccccc1Cl)c1c(O)cc(O)cc1O [4c-2]	–	–	–	107	70.1	–	101 ± 17	1.8 ± 0.3	–	–
CCCc1cc(C(=O)COc2ccccc2Cl)c(O)cc1O [4e-2]	–	–	without affecting the growth of the bacteria	102	3.2	greater inhibition of rabbit blood hemolysis	20.3 ± 1.9	1.3 ± 0.1	–	–
CCc1cc(C(=O)COc2cc(F)c(F)c(F)c2)c(O)cc1O [4b-17]	–	–	–	103	40.8	–	98.5 ± 4	0.6 ± 0.1	–	–
CCc1cc(C(=O)COc2ccc(F)cc2F)c(O)cc1O [4b-12]	93.2	1.7 ± 0.2	–	–	–	–	–	–	104.7	52.3 ± 2.1
O=C(COc1ccc(F)cc1)c1ccc(O)cc1O [4a-6]	–	–	–	–	106	–	–	39.7 ± 3.8	–	–

From patent US20180021277A1, “ANTI-VIRULENCE COMPOSITIONS AND METHODS” (priority 2012, published 2018)
